This is one part of the list. The data describe in vitro nicking of single-stranded DNA by Rep domains (3 µM enzyme, 1 h, 37 °C); shown is the middle of each 90-letter strand. Uncut reads are compared with the no-enzyme pool on a log2 scale; uncut sequences lie near 0, cut ones below; no hit call is given. Reads are scaled to the total; values above 0 arise when much of the pool is cut.
Columns and labels:
Experiment in all cases: uncleaved DNA left, log2 of reads against the no-enzyme library (log2 ratio); higher = less cleavage (more negative = more Rep cleavage of the k-mer); sequences stand for … in CTCGTCCG…ACCGGAGA
[1] = tested on: T1, Rep nickase domain of Muscovy duck circovirus
T1 sequence (residues 1-111 of Rep, tag left off): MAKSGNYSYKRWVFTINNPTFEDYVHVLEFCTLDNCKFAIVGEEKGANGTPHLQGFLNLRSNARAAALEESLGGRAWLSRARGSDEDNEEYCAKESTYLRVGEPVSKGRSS
Procedure: (§1)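 A pool of 90-nt single-stranded DNAs with seven random bases just before the constant AC of the nick site (name = the seven bases) was cut by 3 µM recombinant His6-SUMO-tagged Rep nickase domain (300 nM DNA, 50 mM HEPES pH 8.0, 50 mM NaCl, 1 mM MnCl2, 1 h, 37 °C, three replicates). Uncut DNA was amplified and sequenced.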

[2] = tested on: T2, Rep nickase domain of banana bunchy top virus
T2 sequence (residues 1-94 of Rep, tag left off): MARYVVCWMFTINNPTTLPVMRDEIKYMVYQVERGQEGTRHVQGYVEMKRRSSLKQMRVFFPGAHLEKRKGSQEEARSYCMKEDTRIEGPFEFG
Procedure: as §1

[3] = tested on: T3, Rep nickase domain of cabbage leaf curl virus
T3 sequence (residues 1-116 of Rep, tag left off): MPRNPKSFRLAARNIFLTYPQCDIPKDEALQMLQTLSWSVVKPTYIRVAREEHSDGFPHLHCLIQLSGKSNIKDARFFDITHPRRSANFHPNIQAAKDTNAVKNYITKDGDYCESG
Procedure: as §1

[4] = tested on: T4, Rep nickase domain of chickpea chlorotic dwarf virus
T4 sequence (residues 1-124 of Rep, tag left off): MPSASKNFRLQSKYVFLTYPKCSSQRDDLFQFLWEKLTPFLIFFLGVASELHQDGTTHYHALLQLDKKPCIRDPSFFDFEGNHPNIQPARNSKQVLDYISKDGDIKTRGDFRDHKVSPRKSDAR
Procedure: as §1

[5] = tested on: T5, Rep nickase domain of faba bean necrotic yellows virus
T5 sequence (residues 1-98 of Rep, tag left off): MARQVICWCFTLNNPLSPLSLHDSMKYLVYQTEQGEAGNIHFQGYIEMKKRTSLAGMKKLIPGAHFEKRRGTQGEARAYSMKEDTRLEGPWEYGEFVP
Procedure: as §1

[6] = tested on: T6, Rep nickase domain of maize striate mosaic virus
T6 sequence (residues 1-117 of Rep, tag left off): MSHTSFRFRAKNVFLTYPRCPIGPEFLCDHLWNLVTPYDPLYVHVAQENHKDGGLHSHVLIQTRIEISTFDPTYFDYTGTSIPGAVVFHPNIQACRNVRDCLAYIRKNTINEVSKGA
Procedure: as §1

[7] = tested on: T7, Rep nickase domain of porcine circovirus 2
T7 sequence (residues 2-116 of Rep, tag left off): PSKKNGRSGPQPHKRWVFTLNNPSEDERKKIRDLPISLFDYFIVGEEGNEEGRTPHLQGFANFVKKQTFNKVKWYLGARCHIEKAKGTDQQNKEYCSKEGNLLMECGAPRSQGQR
Procedure: as §1

[8] = tested on: T8, Rep nickase domain of tomato yellow leaf curl virus
T8 sequence (residues 1-136 of Rep, tag left off): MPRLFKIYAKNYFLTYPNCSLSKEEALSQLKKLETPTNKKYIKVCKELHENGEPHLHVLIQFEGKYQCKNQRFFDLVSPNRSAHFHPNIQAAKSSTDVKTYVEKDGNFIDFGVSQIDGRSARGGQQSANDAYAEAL
Procedure: as §1

[9] = tested on: T9, Rep nickase domain of wheat dwarf virus
T9 sequence (residues 1-137 of Rep, tag left off): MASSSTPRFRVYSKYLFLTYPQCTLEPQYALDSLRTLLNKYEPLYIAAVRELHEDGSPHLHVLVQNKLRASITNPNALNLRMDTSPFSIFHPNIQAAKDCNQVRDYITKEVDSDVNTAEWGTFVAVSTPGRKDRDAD
Procedure: as §1

Sequence	uncleaved DNA left (log2) [1]	uncleaved DNA left (log2) [2]	uncleaved DNA left (log2) [3]	uncleaved DNA left (log2) [4]	uncleaved DNA left (log2) [5]	uncleaved DNA left (log2) [6]	uncleaved DNA left (log2) [7]	uncleaved DNA left (log2) [8]	uncleaved DNA left (log2) [9]
ATTGGCT	-0.0573	-0.101	-0.241	-0.564	-0.0418	-0.622	-0.0179	-0.115	-0.0505
CGACGAA	0.00243	0.127	0.0429	0.523	0.0463	1.28	-0.0675	-0.117	0.00584
TGCTCCC	-0.147	-0.00166	0.221	0.102	-0.153	0.486	-0.15	-0.0601	-0.0421
TTCGATA	0.0985	-0.111	0.0981	-1.06	0.0717	-0.289	0.0724	0.0141	0.0396
GAATTGG	-0.128	-0.138	-0.394	-0.482	0.0466	-0.94	0.0651	0.036	-0.0304
CCTCTAC	0.000606	-0.0204	-0.117	-2.06	0.162	-0.622	0.144	0.0863	0.0518
GAAAAGA	0.0185	0.0365	0.217	0.347	0.0114	-0.139	0.131	0.056	0.0665
GATGTTG	0.0181	-0.0995	-0.269	-0.172	0.0844	-0.628	0.0998	0.0158	-0.0435
TGAAGAC	0.0758	0.0308	0.174	0.484	0.06	0.32	0.145	0.0338	-0.0486
TACGTTG	0.212	-0.00714	-0.161	-0.548	0.193	-0.498	0.206	0.0379	0.0665
ATCTAAG	-0.0433	0.00105	-0.793	-0.277	0.0106	-1.33	0.125	0.0179	-0.024
GGAAGTG	0.0191	-0.0419	-0.0113	0.108	0.0498	-0.204	0.167	-0.0497	0.0211
AACGTGG	0.00743	-0.0739	-0.144	0.0483	-0.0724	-0.568	0.0552	-0.194	-0.0257
GCACGTT	-0.0706	-0.0679	-0.17	-1.27	0.0196	-0.206	-0.21	-0.187	-0.314
TCAGAGG	0.0904	0.118	0.382	1.05	-0.0101	0.965	0.166	0.0115	-0.0392
GTTGTAC	-0.116	-0.000974	0.284	0.733	-0.169	1.53	-0.00175	0.0376	-0.0922
GGCGGCT	-0.0736	-0.111	0.0742	0.677	-0.115	1.73	-0.0971	-0.0699	-0.101
GAAACAA	0.084	0.153	0.507	0.893	0.0522	1.22	0.257	0.144	0.25
GCAGTAT	0.122	0.0275	0.213	0.141	-0.1	0.345	0.0979	0.182	0.159
TTTGAGC	0.0375	-0.0275	-0.322	-0.742	0.00345	-1.15	0.00176	-0.00564	-0.146
CGACTCA	0.0755	-0.0178	0.0777	0.398	0.0657	1.1	-0.0624	-0.0632	0.00346
CAAAGCA	-0.12	-0.0457	-0.281	-1.22	0.0162	-0.948	-0.119	-0.0958	-0.0824
GCATTTT	-2.73	-0.104	-0.298	-1.64	-0.151	-0.198	-2.96	0.0623	-0.165
CGAGGAA	-0.0123	0.0391	0.22	0.835	-0.0283	0.871	-0.0543	-0.096	-0.0646
GCTGACG	-0.0089	0.0574	-0.485	-0.37	-0.0305	-0.695	0.135	-0.0114	-0.0697
ACGGCTT	-0.057	-0.0509	-0.281	-0.988	-0.0706	-0.127	0.0849	-0.0973	-0.0699
TAAACTA	-0.0161	0.0397	-1.73	-2.83	0.132	-0.651	-0.218	0.0313	-0.728
TTATGTG	-0.0831	-0.118	-0.851	-0.486	0.0124	-1.23	0.072	-0.067	-0.181

— the supplement of paper PMC7826260
